Data: the supplement of paper PMC9513381

B1: B680 (protein)
chain 1: EVQLVESGGGLVQPGGSLRLSCVASGFTFSSYDMHWVRQTTGKGLEWVSLIGTAGDTYYPDSVKGRFTISRENAKNSLYLQMNSLRAEDTAVYYCARGGYSFGYGGGFFDPWGQGTLVTVSS
chain 2: DIQMTQSPSSLSASVGDRVTFTCRASQSISRYLNWYQQKPGKAPKLLIHGASSLQSGVPSRFSGSGSGTEFTLTINSLQPEDFATYYCQQSYSTPGYTFGQGTKLEIK
B2: B663 (protein)
chain 1: QVQLQESGPGLVKPSQTLSLTCAVSGGSISSGYYSWSWIRQPAGKGLEWIGFIDDSGSTHYNPSLKRRVTISMDTSKNQFSLKLSSVTAADTAVYYCARDNWNDQRPDYYGMDVWGQGTTVTVSS
chain 2: SYELTQPPSVSVSPGQTARITCSGDALPKQYAYWYQQKPGQAPLLVIYKDTERPSGIPERFSGSSSGTTVTLTISGVQAEDEADYYCQSADSSLVVFGGGTKLTVL
B3: B672 (protein)
chain 1: QVQLQESGPGLVKPSQTLSLTCTVSGGSISSSDYYWSWIRQSPGKGLEWIGYIFYSGNTYYNPSLKSRLVISVDTSKNQFSLRLSSVTAADTAVYYCARDGAMVQGVFDFWGQGILVTVSS
chain 2: EIVLTQSPATLSLSPGERATLSCKASQSVRNYLAWYQQRPGQAPRLLIYDASLRATGIPARFSGSGSGTDFTLTISSLEPEDFAVYYCQQRYNWPPLTFGGGTKVEIK
B4: B673 (protein)
chain 1: QVQLVQSGPEVKKPGASVKVSCKASGYTFSNYFIHWVRQAPGQGLEWVGMISPGGAGTSYAQKFQGRVTMTRDTSTNTVYMELTSLRSEDTAVYYCPRADSGSYHFFDYWGQGTLVTVSS
chain 2: DIQMTQSPSSLSASVGDRVTITCRASQSISSDLNWYQQKPGKAPQLLIYAASILQSGAPSRFSGSGSGTDFTLTISALQPEDFATYYCQQSYSLFPITFGQGTRLEIK
B5: B662 (protein)
chain 1: QVQLVQSGAEVKKPGASVKVSCKPSGYSFTDYYIHWVRQAPGQGLEWMGWINPNSGGTNYAQKFQGWVTMTRDMSSSTAYMEMSRLKSDDTAVYYCARGTATTNRYYHYGMDVWGQGTTVIVSS
chain 2: QAVVTQEPSLTVSPGGTVTLTCGSSTGAVTSGHYPYWFQQKPGQAPRTLIFDTSNKHSWTPARFSGSLLGDKAALTLSGAQPDDEAEYYCLLSYSGAQVFGGGTKLTVL
B6: B2108 (protein)
chain 1: EVQLVESGGALQQPGRSLTLSCAASGFTFEDYAMHWVRQAPGKGLEWVSGITWTGGMIDYADSVKGRFIISRDNAKKSLYLHMRGLRPEDTALYYCARGSRSGSYHLRDHFYGMDVWGQGTTVTVSS
chain 2: DIQLTQSPSSLSASVGDRVTITCRASQNVNYYLNWYQQRPGKAPELLIYGASSLQSGVPSRFSGGGSETDFTLTISSLQPEDFATYYCQQSYDLPPTFGQGTRLEIK
B7: B667 (protein)
chain 1: EVQLVQSGAEIKRPGESLRISCQGSGYSLTNSWIAWVRQMPGKGLEWMGVIYAADSDTRYSPSFQGHVTISADKSISTAYLQWSSLKASDTAMYYCVRLSSNWYWGSAYWGQGTLVTVSS
chain 2: DIQMTQSPSSLSASVGDRVTITCQASQDISNYLNWYQQKPGKAPKLLIYDASNLETGVPSRFSGSGSGTDFSFTISSLQPEDIATYYCQQYNNLPPTFGGGTKVEIK
B8: B664 (protein)
chain 1: QVQLVESGGGVVQPGRSLRLSCAASGFTSSLYTMHWVRQAPGKGLEWVAVLLYDGNNKYYADSVKGRFTISRDNPKNTLYLQMNSLRAEDTAIYFCARAATVGAGSDDHWFAPWGQGTLVTVSS
chain 2: QSVLTQPPSVSGAPGQRVTISCAGGSSNIGAFYDVHWYQLLPRTAPKLLIFANTNRPSGVPDRFSGSKSGTSASLAITGLQAEDEATYYCQSYDSSLSGWVFGGGTKLTVL
B9: B674 (protein)
chain 1: QVQLVQSGAEVKKPGASVKVSCKASGNTFNNHYMHWVRQAPGQGLEWMGIISPSGGSTSYTQNYQGRVTVTRDTSTSTVYMELISLRYEDTAVYYCARADSGSYHFLDYWGQGTLVTVSS
chain 2: DIQMTQSPSSLSASVGDRVTITCRASQSISSSLNWYQQKPGKAPKLLIYAASILQSGVPSRFSGSGSGTEYTLTIDSLQPEDFATYFCQQSHSIPPITFGQGTRLEIK
B10: B677 (protein)
chain 1: EVQLVQSGAEVKKPGESLRISCKGSGYSFTSHWISWVRQMPGKGLEWMGRIDPSDSYTNYSPSFQGHVTISGDKSISTVYLQWSSLKASDSAMYYCVCTLVVVDHTIDYWGQGTLVTVSS
chain 2: EIVLTQSPATLSLSPGERATLSCRASQSVSSFLAWYQQKPGQAPRLLIYDASNRATGIPARFSGSGSGTDFTLSISSLEPEDFAVYYCQHRSNWPPYTFGQGTKLEIK
B11: B668 (protein)
chain 1: EVQLVQSGAEVKKPGESLKISCKGSGYIFNRNWIAWVRQMPGKGLEWMGVIDPGDSETRYSPSFQGQVTISVDKSISTAYLQWSSLKASDTAMYYCARQLVGGDSSFDFWGQGTLVTVSS
chain 2: DIQMTQSPSTLSASVGDRVTITCRASQSISSWLAWYQQKPGKAPKLLIYDASNLETGVPLRFSGSGSGTEFTLTISSLQPDDFATYYCQQYNSYPRTFGQGTTLEIK
B12: B678 (protein)
chain 1: EVQLVESGGGLIQPGGSLRLSCAVSGLGVNTNYMSWVRQAPGKGLEWVSLIYGGGSTYYADSVKGRFIISRDNSENTLYLQMNNLTTEDTAVYYCATSSGWYVLRRGGFDYWGQGTLVTVSS
chain 2: EIVLTQSPGTLSLSPGERATLSCRASQSIDSRVLAWYQQKPGQAPRLLIYGASSRATGIPDRFSGSGSGTDFTLTISRLEPEDFVVYFCQQYGTSPGTFGQGTKLEIK
B13: B681 (protein)
chain 1: EVQLLESGGALVQPGGSLRLSCAASGFAFSNYAMSWVRQAPGKGLEWVSAISGRGDRTYYADSVKGRFTVSRDNSNNTLYLQMKSLRAEDTAVYYCAKDVDTAMVQAEYFQHWGQGTLVTASS
chain 2: DIQMTQSPSTLSASVGDRVTITCRASQSVGRWLAWYQQKPGKAPKLLISDASSLEAGVPSRFSGSGSGTEFTLTISSLQPDDFATYYCQQCNGHITFGPGTKVDIK
B14: B666 (protein)
chain 1: EVQLVQSGAEVKKPGESLKISCKGSGYQFTRNWIAWVRQMPGKGLEWMGTIDPGDSETRYSPSFQGQVTISVDKSISTAYLQWSSLKASDTAKYFCARLFCGGDCPLDSWGQGTLVTVSS
chain 2: DIQMTQSPSTLSASVGDRVTITCRASQSISTWLAWYQQKPGRAPKLLIYDASNLESGVPSRFSGSGSGTEFTLTISSLQPDDFATYYCQQYNSYWTFGQGTKVEVK

Columns and labels:
[1] = molecular target: SARS-CoV-2 Wuhan-Hu-1 spike pseudovirus; assay: pseudovirus neutralization IC50; higher = weaker neutralization
Description: (§1)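 Single-round luciferase reporter pseudovirus mixed with antibody dilutions and put on 293T-ACE2 cells for 48 h; signal relative to no-antibody wells, four-parameter fit.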

[2] = molecular target: SARS-CoV-2 Wuhan-Hu-1 spike pseudovirus; assay: pseudovirus neutralization IC90; higher = weaker neutralization
Description: as §1

[3] = molecular target: SARS-CoV-2 Delta (B.1.617.2) spike RBD; assay: ELISA binding EC50; higher = weaker binding; ELISA of recombinant human antibody on coated antigen, from 10 µg/ml in fourfold dilutions; four-parameter fit.
[4] = molecular target: SARS-CoV-2 Omicron BA.1 spike protein; assay: as above
[5] = molecular target: SARS-CoV-2 Wuhan-Hu-1 spike receptor-binding domain; assay: as above

Binder	pseudovirus neutralization IC50 [1] [ng/mL]	pseudovirus neutralization IC90 [2] [ng/mL]	ELISA binding EC50 [3] [ng/mL]	ELISA binding EC50 [4] [ng/mL]	ELISA binding EC50 [5] [ng/mL]
B1	> 1000	> 1000	12	13.6	2.04
B2	> 1000	> 1000	3.6	10.2	1.43
B3	> 1000	> 1000	7.58	2.72	1.17
B4	7.65	47.3	16.2	> 1000	1.05
B5	3.47	25	9.44	> 1000	1.33
B6	31.5	367	> 1000	318	1.64
B7	> 1000	> 1000	5.08	2.97	2.66
B8	26.4	439	62	35.1	2.6
B9	14.3	99.5	25.6	> 1000	1.48
B10	7.2	38.4	> 1000	289	7.73
B11	> 1000	> 1000	4.04	3.72	0.865
B12	5.13	22.6	3.08	> 1000	2.77
B13	11.9	33	2.38	3.02	2.67
B14	> 1000	> 1000	8.27	3.48	2.6

Recombinant human monoclonal antibodies (heavy:light variable regions). ELISA EC50 on the named antigen, from 10 µg/ml down; IC50 / IC90 against spike pseudovirus on 293T-ACE2 cells, 48 h; lower = stronger. Calls: IC50 above 1,000 ng/ml = non-neutralizing; EC50 above 1,000 ng/ml = non-binder. The source prints 1000 for neutralization that was not reached; it is given as >1000 ng/ml. Only binders of the Wuhan-Hu-1 domain have neutralization values.
